# According to the supplement of paper PMC12632987:
# Whole data set: some 4,500 sequences, median “median log2 fold change of GCK-ALFA target abundance (FLAG IP / Myc IP barcode read proportion)” near 0.078, cut for the lowest 2% near -0.6. This is one part of the list.
# B1: GBRAP_78_6726 (protein)
# chain: ELEELLDKALEKVNKAAKLLLTLPLELSEEPLGELVDAASDLEEAIEEGGDLKYLEEALKHLEAAKKALEAKKNPELEPALKEVEEAIKLLKQAIKLAKK
# B2: GBRAP_83_6968 (protein)
# chain: AEEVAVVTTPDHVDAAIDAAIDLAEEEGKKVTVVLVGDPEGVIAAAKKVAEATKDLPNVEIEAVITNAREEEAERAERELKEIAEKYGKKLTFHADLIPP
# B3: GBRAP_35_5610 (protein)
# chain: DFEEETAEMLVAFIEDLTLAVPDVDVATLVAMTNSAVDTAREVAEEHKDNLEALEKLRKAMEKLLEALKKHHGDDPEAAAAIARVEETIKYIEELIKEAK
# B4: GBRAP_128_3215 (protein)
# chain: STEEAVERVRELLERIKESDEEEAREIAEELAELILSLSLEEAEAAREAIEELLPELTEEQLDILMDAFAEASKETDTPVADVLADLAVAAGEEILEQEE
# B5: GBRAP_184_5175 (protein)
# chain: KVLEFDLEAADVAEARAQMAAIAAAVAGTNADVYIIVRIPELTVEMVRAILDGAAAIKAAGAATRITIHFEGDVDEEVADVALELAREAGINVVLALKEE
# B6: GBRAP_160_4184 (protein)
# chain: EEEIEELIKEIKEIAEEAKKLIEGETHEQRKVIVAGAFGQIILLLSENEKISDETVDEVAKIADETIETLEKNPDLTEEEIKELIKEATEKIIEIIKKNT
# B7: GBRAP_74_6515 (protein)
# chain: QAALLAALRAAAEAGDARAVAALAREIIATGSLEAIEEAARIVVAFVDRHIDELSEEELELMADVLAELADKLMELGGDSEVILAVANAAYRLEKLIEER
# B8: GBRAP_11_2609 (protein)
# chain: KKEILKRLAELAKEAAEAVEELLEVGVDDEELLKKIKELIEKLKEEVEKHGNEADKTDIEVIVELWKLAQEDPENQEFYLEQLLAALRVFAGNYLLEIEE
# B9: GBRAP_128_3577 (protein)
# chain: SAAERLARARELIAAIVASDVAEARRLAEELVALLAEADEATREEIAELVLAALPQLTAEKLDVLADVARAARPRADPLTAEALADIEVEALNEREELEE
# B10: GBRAP_128_3189 (protein)
# chain: SVEEVRAWTTAAMEAIKNSDAETARAIAEALFDRLKTLSVEEVEAAVAVILEQLPQLTAEQLEILADVARERRPEFDPEKANLVAEVEVEALNLLEELEE
# B11: GBRAP_184_5352 (protein)
# chain: MVRDVVIKADTVDEAIAKLNEAVAAAKAAGEGLNLLIEVPINTVEDAKKLMAALKAGADAGVIKGVVGITNVSNDDEIIDTLVKGADEAGIKLVLALDEE
# B12: GBRAP_52_6227 (protein)
# chain: MRERMRALVERGVALVRAGRLEEARALAREVVETLNDEELELFIEELAEAVRAAPLEDLPAYERLVELVEEAMEEAGKDEVLIDLLESRFAAAAYERLQK
# B13: GBRAP_35_5562 (protein)
# chain: DSDETIAEMMVNTIDDLTEAVADIPPEQLATITAQLARATKEVIKEIKDNKENLEKLLESLEKLKAAIEARGLDDPHLRAAAEAVEEAIKEAKEAIKKAE
# B14: GBRAP_160_4863 (protein)
# chain: SEKLERALKIIEEAEKEALEIIEEAPASDRAAFAESEMGEAIMELVEEGLITDELEDKLMEIADKLRERLLANADASVEEHKKLVEEAFKEMKETVKKMS
# B15: GBRAP_52_5942 (protein)
# chain: MEEKYKAIAEKLLALGLAGDEEGLEALAREIAETLSDEEILAVAKEIAELAKTLPKEDLDAVYRIMEVLVEELEKAGRSEELIAEIEGIMAKAMYERELA
# B16: GBRAP_95_7079 (protein)
# chain: DEDLEEVEILAYTAIDLYDAGLKEHAAKLFKAALDEAEELGWKVKDKELFHELLKKFAELALEHFTAEEIKRAIEAAKKSGAPKELIEALEKKLKEKEAA
# B17: GBRAP_45_5807 (protein)
# chain: SAELQAALDAALAALDRAIAEARRLAKEDPERWAVVLARLEALRARLVANADNAEALKAIAAELDALLKEAAADPGATAELLDALLEAANAVAEAAELLK
# B18: GBRAP_160_4232 (protein)
# chain: SEVVKKLVEVFREEFLEALELIKGESEEERKVILDVTVGRVILEASEIEGTTDEMEEVVDEKSEELAEKLLEAKDESEEEKKKLIEEMAKELEKELKKLA
# B19: GBRAP_160_4192 (protein)
# chain: SEEVEKLIKEIDEIAEEAKKMIEGETHEQRKVIIEMAFGEIIMLAFESPVVSDETVDEIVKIADEVIATIDENPDLTEEEIKKLLDEAVEKIKEIIKKDA
# Target: GABARAP, O95166
# Sequence (O95166 whole entry, the tested form may be a part): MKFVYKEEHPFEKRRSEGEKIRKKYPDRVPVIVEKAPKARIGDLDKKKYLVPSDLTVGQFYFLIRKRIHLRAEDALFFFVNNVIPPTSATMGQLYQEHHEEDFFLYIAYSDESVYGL
# Assay: median log2 fold change of GCK-ALFA target abundance (FLAG IP / Myc IP barcode read proportion) (log2 ratio); each designed protein is fused to an ALFA-tag nanobody in HEK293 cells to bring the named protein to FLAG-tagged glucokinase (GCK); Myc marks an untargeted standard; higher = target protein stabilised (more abundant)
# Settings: target protein: 3xFLAG-MCP-GCK-ALFA reporter; HEK293 landing pad (RPLP)
# Procedure, shortened: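 Sequencing of reverse-transcribed, amplified circular RNA barcodes from anti-FLAG and anti-Myc immunoprecipitates provided the readout for an ALFA-nanobody-fused binder library recombined into HEK293 landing-pad cells. Those cells were induced with 2 μg mL^−1 doxycycline, transfected with a plasmid expressing a FLAG-tagged target and a Myc-tagged standard, and lysed after 48 h. Target abundance is the per-binder median log2 ratio of FLAG to Myc barcode read proportions. Only barcodes at a proportion of ≥10^−7 in both replicates and binders with ≥3 barcodes per replicate were kept, with a 10^−6 pseudocount added before the two replicates were pooled.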
row,Binder,median log2 fold change
1,B1,0.191
2,B2,-0.0575
3,B3,0.102
4,B4,0.0632
5,B5,0.187
6,B6,0.121
7,B7,-0.0912
8,B8,-0.173
9,B9,0.157
10,B10,0.108
11,B11,0.12
12,B12,0.0801
13,B13,0.0426
14,B14,0.246
15,B15,0.108
16,B16,0.0852
17,B17,0.146
18,B18,-0.216
19,B19,-0.154
